Where “and” joins values, the source holds several entries; their conditions need not be identical. Identical values can stand only once. Hit rate of the full screen: of about 410,000 compounds, about 5,000 (1.2%) were called active. Inconclusive means that the source gave no clear call. Such entries were picked first, then a sample of the others. Calls follow the shape of the dose curve; as a rule, active = well fitted inhibition curve with a large enough effect; inconclusive = small, poorly fitted or top-dose-only effect; inactive = no such curve, though single readings can be large or run the other way. A potency beside an inconclusive call is a rough fit, not a confirmed value.
assay: qHTS for Inhibitors of TGF-b; settings: HepG2 CAGA-GFP TGF-b/SMAD3 reporter, GFP fluorescence, 18 h, TGF-beta stimulated, 500 pg/mL final; series mostly up to 46.1 µM; also: nearly all actives have a fitted effect of over 65% in size
Procedure, shortened: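 HEPG2 CAGA-GFP cells (1000/well, DMEM with 1% FBS) were pre-incubated 2 h at 37 degrees C, given compound by pin tool, then stimulated with TGF-beta at 500 pg/mL final for 18 h before per-cell GFP fluorescence imaging.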
Potency is read from the fitted curve at half-maximal effect; tags tell the direction and shape of the fitted curve.

Compound | Potency
Cc1nc(NC(=O)CC(C)C)sc1-c1csc(Nc2ccc(Cl)cc2)n1 | inactive
CC(C)(C)OC(=O)N1CCC(NC(=O)c2[nH]cnc2C(=O)Nc2cccc(Cl)c2)CC1 | inconclusive: 5.62 µM [inhibitor, single point]
COc1ccc(C)cc1S(=O)(=O)Nc1ccc(F)cc1 | inactive
CC1CCN(CC(=O)Nc2ccccc2-c2ccccc2)CC1 | inconclusive: 35.5 µM [inhibitor, single point]
CN(CC(=O)Nc1ccccc1Br)C(=O)CCCSc1nc2ccccc2[nH]1 | inconclusive: 3.16 µM [inhibitor, single point]
O=C1c2ccccc2C(=O)c2[nH]cnc21 | inconclusive: 0.794 µM [inhibitor, full curve, poor fit]
CCOC(=O)CSc1n[nH]c(NC(=O)CC)n1 | inconclusive: 5.62 µM [inhibitor, single point]
CC12CCC(=O)N1C(C(=O)Nc1ccc(S(=O)(=O)N3CCCCC3)cc1)CS2 (configuration not stated) | inactive
CSc1nc(C)cc(Nc2c(C)cc(C)cc2C)n1 | inconclusive: 12.6 µM [inhibitor, partial curve, poor fit]
COc1cccc(C(=O)Nc2ccc(Cl)c(-c3nc4ccccc4[nH]3)c2)c1 | inconclusive: 10 µM [inhibitor, partial curve, poor fit]
COc1cccc(CN2CCC2(C)C(=O)Nc2cccc(Oc3ccccc3)c2)c1F (configuration not stated) | inconclusive: 22.4 µM [inhibitor, single point]
COC(=O)C1C(c2ccccc2)C(C(=O)OCc2ccco2)C1c1ccccc1 (configuration not stated) | inconclusive: 15.8 µM [inhibitor, single point]
O=C(NCCn1cc(SCc2ccc(F)cc2)c2ccccc21)c1c(F)cccc1F | inconclusive: 10 µM [inhibitor, partial curve, poor fit] and inconclusive: 14.1 µM [inhibitor, single point]
Cc1ccc(Cn2c(C(=O)Nc3cccc(Cl)c3)cc3sccc32)cc1 | inconclusive: 10 µM [inhibitor, partial curve]
CCn1c(CCC(=O)N(C)CC(=O)Nc2cccc(F)c2)nc2cc(S(=O)(=O)N(C)C)ccc21 | inconclusive: 2.82 µM [inhibitor, partial curve, poor fit]
CCCC(=O)Nc1cc(C(=O)O)ccc1S(=O)(=O)c1ccc(C)cc1 | inconclusive: 5.62 µM [inhibitor, single point]
O=C(NCC1CCCO1)c1cccc(F)c1 (configuration not stated) | inactive
Nc1nc(N)nc(-c2ccc(Cl)c(Cl)c2)n1 | inconclusive: 11.2 µM [inhibitor, partial curve, poor fit]
Oc1ccc2c(c1)OCC1(O)Cc3cc(O)c(O)cc3C21 (configuration not stated) | inactive
CSc1ncc(Cl)c(C(=O)Nc2ccc(S(=O)(=O)N3CCC(C)CC3)cc2)n1 | inconclusive: 7.94 µM [inhibitor, partial curve]
FC(F)(F)c1nnc(-c2ccccc2)nc1Sc1ccc(Cl)cc1 | inactive

Compound | Potency
COc1ccccc1-n1cc(-c2ccc(Br)cc2)[nH]c1=S | inactive
CC(C)N1CCc2c(sc(NC(=O)Cc3ccccc3)c2C(N)=O)C1 | inactive
C=C1OC(CO)(n2cnc3c(N)ncnc32)C(O)C1O (configuration not stated) | inactive
CC1(N=Cc2cc(Cl)ccc2O)COP(=O)(Nc2ccccc2)OC1 (configuration not stated) | inconclusive: 4.47 µM [inhibitor, single point]
CC1CC(Nc2ccccc2)c2ccccc2N1C(=O)c1ccccc1F (configuration not stated) | inactive
CCOC(=O)C(C)Oc1ccc(C2NC(=O)NC(C)=C2C(C)=O)cc1Br (configuration not stated) | inconclusive: 11.2 µM [inhibitor, single point]
CCSc1nnc(NC(=O)c2ccccn2)s1 | inconclusive: 12.6 µM [inhibitor, partial curve, poor fit]
COc1ccc(CN(C(=S)Nc2ccccc2)C2CC(=O)N(c3ccccc3)C2=O)cc1 (configuration not stated) | inactive
CCOc1cc(CNCCSc2nnnn2C)cc(Br)c1OCc1ccc(F)cc1 | inconclusive: 35.5 µM [inhibitor, single point]
C#CCOCCOCCOCCNc1nc(N2CCN(C(=O)CCCCCCCCCCNC(=O)[C@H]([C@@H](C)CC)n3cc(CCCCN=C(N)N)nn3)CC2)nc(N2CCN(C(=O)CCCCCCCCCCNC(=O)[C@H](CO)n3cc(CCCSC)nn3)CC2)n1 | inconclusive: 35.5 µM [inhibitor, single point]
Cn1c(=O)oc2cc(S(=O)(=O)NCc3ccncc3)ccc21 | inconclusive: 6.31 µM [inhibitor, single point]
O=C(COc1ccc(Cl)cc1)Nc1ncc([N+](=O)[O-])s1 | inconclusive: 10 µM [inhibitor, partial curve, poor fit]
CCOc1cc(C(=S)N2CCOCC2)ccc1OS(=O)(=O)c1ccccc1 | inconclusive: 28.2 µM [inhibitor, partial curve, poor fit]
COC(=O)C1=C(C)N(Cc2ccccc2)C(=NCC(C)C)N[C@H]1c1ccccc1 | inconclusive: 20 µM [inhibitor, single point]
Cc1ncc([N+](=O)[O-])n1CCOC(=O)NC(NCc1ccccc1)C(Cl)(Cl)Cl (configuration not stated) | inconclusive: 28.2 µM [inhibitor, single point]
COc1cn(CC(=O)Nc2ccc(F)cc2)c(CN2CCCCC2)cc1=O | inactive
CCCOc1cccc(-c2cc(C(=O)N/N=C/c3ccccn3)c3ccccc3n2)c1 | inconclusive: 11.2 µM [inhibitor, partial curve, poor fit]
Cc1cccc(Cn2c(CN3CCC(C(=O)NCc4cccnc4)CC3)cc3ccccc32)c1 | inconclusive: 15.8 µM [inhibitor, single point]
COc1ccc(S(=O)(=O)N2CCOC23CCN(S(=O)(=O)c2cc(C)ccc2C)CC3)cc1 | inactive
O=C(O)CN1C(=O)/C(=C\C(Br)=C\c2ccccc2)SC1=S | inconclusive: 8.91 µM [inhibitor, partial curve]
O=C1NC(c2cccc3ccccc23)Nc2ccccc21 (configuration not stated) | active: 3.55 µM

Compound | Potency
Cc1cc(C)cc(NC(=O)C2CCN(S(=O)(=O)c3ccc4c(c3)NC(=O)C(C)S4)CC2)c1 (configuration not stated) | inconclusive: 35.5 µM [inhibitor, single point]
CC1=C(C(=O)Nc2ccc([N+](=O)[O-])cc2)C(c2cccc(C(F)(F)F)c2)NC(=S)N1c1ccccc1 (configuration not stated) | inconclusive: 14.1 µM [inhibitor, partial curve, poor fit]
CCOC(=O)C1CCN(C(=O)Cn2nc(C)n3nc(-c4ccc(OC)cc4)cc3c2=O)CC1 | inactive
O=c1c(/C=N/O)c(Nc2ccccc2)nc2ccccn12 | inconclusive: 35.5 µM [inhibitor, single point]
Cc1ccccc1Nc1c(-c2cccnc2)nc2ccc(Br)cn12 | inconclusive: 35.5 µM [inhibitor, single point]
COc1ccc(C(=O)CC(=O)C(=O)Nc2ccc(OC)c(Cl)c2)cc1 | inactive
O=C(Nc1ccccc1Cl)c1ccc(-n2cccn2)c([N+](=O)[O-])c1 | inactive
CCOc1ccc(NC(=O)CN(C)C(=O)c2ccc3nc(CC)c(CC)nc3c2)cc1OCC | inactive
CC1CCCCN1CCNC(=O)c1cc2c(=O)n(C)c3ccccc3c2n1C (configuration not stated) | inactive
O=S(=O)(NCc1nc2cccnc2n1Cc1ccc(F)cc1)c1ccc2c(c1)CCCC2 | inconclusive: 35.5 µM [inhibitor, single point]
O=C(CCN1C(=O)/C(=C/c2ccccc2)SC1=S)N[C@@H](CO)Cc1ccccc1 | inconclusive: 22.4 µM [inhibitor, single point]
COc1ccc(CC(=O)OCC(=O)Nc2ccc3[nH]c(=O)[nH]c3c2)cc1 | inconclusive: 0.631 µM [inhibitor, full curve, poor fit]
C=CCn1c(SCC(=O)N(C)c2c(N)n(Cc3ccccc3)c(=O)[nH]c2=O)nnc1-c1ccccc1OC | inactive
COc1cc(SC)ccc1C(=O)NCCOc1ccc(Cl)cc1 | inactive
CCOc1ccc(S(=O)(=O)N(C)c2ccc(OCC(=O)Nc3nc4ccccc4s3)cc2)cc1 | inconclusive: 1.78 µM [inhibitor, partial curve, poor fit]
COc1ccc(CC(=O)NC(=S)NNC(=O)COc2c(C)cccc2C)cc1 | inactive
Cc1ccc(C(c2cc(Br)ccc2O)N2CCSCC2)cc1 (configuration not stated) | inconclusive: 2.82 µM [inhibitor, full curve, poor fit]
COCCNc1nc(Oc2ccc(NC(C)=O)cc2)c2sc(-c3ccccc3)cc2n1 | inconclusive: 22.4 µM [inhibitor, single point]
OCCN(Cc1ccccc1)Cc1cccc(Cl)c1Cl | inconclusive: 14.1 µM [inhibitor, single point]
C=CCOc1ccccc1CN1CCCCCC1 | inactive
